Assay [1] has as its target T1, Endospanin 1 (Endo1), endogenous mouse (mouse (endogenous in adipose tissue and liver)) (UniProt O89013).
T1 sequence: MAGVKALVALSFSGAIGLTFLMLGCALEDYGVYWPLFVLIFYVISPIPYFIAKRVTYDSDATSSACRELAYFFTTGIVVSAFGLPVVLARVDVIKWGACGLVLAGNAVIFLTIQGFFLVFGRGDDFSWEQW
The assay is described as follows: co-IP; endogenous proteins; mouse liver lysate (Supplemental Figure 6).

The chains behind the UniProt entries cited, without tags or fusion partners.
UniProt P16671: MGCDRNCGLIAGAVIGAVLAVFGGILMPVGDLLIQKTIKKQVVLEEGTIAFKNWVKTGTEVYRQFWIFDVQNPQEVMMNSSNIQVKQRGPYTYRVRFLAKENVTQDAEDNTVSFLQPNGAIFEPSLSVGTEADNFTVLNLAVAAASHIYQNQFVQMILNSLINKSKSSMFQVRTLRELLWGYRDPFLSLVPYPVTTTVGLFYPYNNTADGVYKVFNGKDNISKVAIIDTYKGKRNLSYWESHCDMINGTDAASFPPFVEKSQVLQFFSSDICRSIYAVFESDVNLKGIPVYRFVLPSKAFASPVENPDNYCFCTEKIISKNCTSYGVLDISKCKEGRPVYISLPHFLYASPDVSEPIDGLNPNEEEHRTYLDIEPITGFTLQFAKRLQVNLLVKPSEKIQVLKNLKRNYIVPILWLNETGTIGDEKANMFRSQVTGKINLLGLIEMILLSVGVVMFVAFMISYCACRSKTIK
UniProt Q08857: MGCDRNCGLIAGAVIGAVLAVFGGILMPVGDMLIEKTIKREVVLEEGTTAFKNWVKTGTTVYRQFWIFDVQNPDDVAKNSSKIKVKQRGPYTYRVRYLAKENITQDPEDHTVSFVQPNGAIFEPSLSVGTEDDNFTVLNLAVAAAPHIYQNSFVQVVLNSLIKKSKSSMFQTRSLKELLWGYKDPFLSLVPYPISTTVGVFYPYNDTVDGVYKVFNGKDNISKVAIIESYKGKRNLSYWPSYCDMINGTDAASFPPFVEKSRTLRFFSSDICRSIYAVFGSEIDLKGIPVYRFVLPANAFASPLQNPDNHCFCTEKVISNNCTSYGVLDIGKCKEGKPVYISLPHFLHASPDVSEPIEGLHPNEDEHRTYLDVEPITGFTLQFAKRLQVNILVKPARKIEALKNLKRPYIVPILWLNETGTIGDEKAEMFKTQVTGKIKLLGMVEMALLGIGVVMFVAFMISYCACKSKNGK

In assay [2] the target is T1, Endospanin 1 (Endo1), endogenous mouse (mouse (endogenous in adipose tissue and liver)). The assay is described as follows: co-IP; endogenous proteins; lysates of visceral, gonadal and s.c. adipose tissue of WT mice; immunoprecipitation with Endo1 or CD36 antibodies; TEM buffer with 0.5% Triton X-100, 4°C; Endo1-KO tissues as negative controls.
The target in assay [3] is T2, 6myc-tagged Endo1 (Endospanin 1) (UniProt O15243).
T2 sequence: T1 sequence with Y42H, V43A, Y49H, L84F, V87I, D92A, V119I
Kind of assay: co-IP; HEK293T cells coexpressing 6Myc-Endo1 and Flag-CD36; lysis in TEM buffer (25 mM Tris-HCl pH 7.5, 2 mM EDTA, 10 mM MgCl2) with 0.5% Triton X-100; immunoprecipitation overnight at 4°C, Protein G Sepharose; immunoblot; both orientations; cells with only one construct as controls. A general note: A western blot detects proteins with antibodies after separation by electrophoresis.

In assay [4] the target is Flag-tagged CD36 (FLAG-huCD36) (human) (UniProt P16671). Described as above.
Assay [5] deals with CD36, endogenous mouse (mouse (endogenous in adipose tissue and liver)) (UniProt Q08857). Kind of assay: co-IP; endogenous proteins; lysates of visceral, gonadal and s.c. adipose tissue of WT mice; immunoprecipitation with Endo1 or CD36 antibodies; TEM buffer with 0.5% Triton X-100, 4°C; Endo1-KO tissues as negative controls.

Numbering of substitutions follows the chain as printed. No constants are given. Whether binding was seen depends on the method and setting. In cells and extracts the contact can be indirect. Some results given as binding are weak or reduced against the parent protein; the word gives no strength. For some assays here: Sequences can lack the tags named with a protein.

Among the data in paper PMC11141941 are binding values, retold here.

As to “CD36, endogenous mouse (from UniProt Q08857 1-472)”, the values for the binding result in assay [1] and in assay [2] were “no binding (condition: in liver lysate)” and “binds”, respectively. With “Flag-tagged CD36 (FLAG-huCD36) (from UniProt P16671 1-472)”, the binding entry in assay [3] is given as “binds”.

B1: 6myc-tagged Endo1 (Endospanin 1) (protein, UniProt O15243 1-131)
chain: T1 sequence with Y42H, V43A, Y49H, L84F, V87I, D92A, V119I
As to B1, in assay [4], the binding result is given as “binds”.

B2: Endospanin 1 (Endo1), endogenous mouse (protein, UniProt O89013 1-131)
chain: T1 sequence
As to B2, the binding result in assay [5] was “binds”.
